Tests used:
[1] = molecular target: T1, human IGF1R extracellular domain, recombinant, His tag at C-terminus (human, UniProt P08069 31-932); assay: ELISA on ECD of IGF1R, bispecific form
T1 construct: also called human IGF1R ECD; ECD of IGF1R

[2] = molecular target: T1, human IGF1R extracellular domain, …; assay: ELISA on human IGF1R protein
[3] = molecular target: T2, human IGF1R, endogenous, on the surface of breast cancer cell lines (MCF-7, JIMT-1, BT474) (human, UniProt P08069 31-1367); assay: FACS on MCF-7 cells (2ndary Ab only MFI 2.29)
T2 construct: also called endogenous IGF1R on the cell surface; MCF-7 cell line

[4] = molecular target: T2, human IGF1R, endogenous, on the surface …; assay: FACS on MCF-7 cells, antibody 10 ug/mL (2nd Ab only 2.86, not treated 1.88)

| Binder | EC50 [1] | EC50 [2] | MFI [3] | GeoMean, Internalization at 37° C. [4] |
| --- | --- | --- | --- | --- |
| Hu11F11(ver.2)-VH5 bivalent (bispecific antibody) (bispecific antibody, also called hu11f11-VH5; hu11F11x1564_VH5) heavy: EVQLVESGGGLVQPGGSLRLSCATSGFTFSDFYMEWVRQPPGKRLEWIAASRNKANDYTTEYSASVKGRFTVSRDDSKSSLYLQMNSLRAEDTAIYYCARDAHGKPFAYWGQGTTVTVSS[human IgG1 constant region cut from this listing]GGGGSGGGGSGGGGSQSVLTQPPSASGTPGQRVTISCTGSSSNIGSNDVSWYQQLPGTAPKLLIYANSNRPSGVSDRFSGSKSGTSASLAISGLRSEDEADYYCGAWDDSLNGYVFGCGTKLTVLGGGGSGGGGSGGGGSGGGGSEVQLLESGGGLVQPGGSLRLSCAASGFTFSSYDMSWVRQAPGKCLEWVSAISGDNGSTYYADSVKGRFTISRDNSKNTLYLQMNSLRAEDTAVYYCAKGVLTTLMNWFDSWGQGTLVTVSS light: DIVMTQSPSSLAVSLGERVTMS[about 80 residues cut from this listing][about 120 residues cut from this listing] | 0.366 nM | 0.125 nM | 6.44 | 6.1 |
| Hu11F11(ver.2)-VH9 (bivalent bispecific antibody) (bispecific antibody, also called hu11F11x1564_VH9) heavy: EVQLVESGGGLVQPGGSLRLSCATSGFTFSDFYMEWVRQPPGKRLEWIAASRNKANDYTTEYSASVKGRFTVSRDDSKSSLYLQMNSLRAEDTAIYYCARDAHGKPFAYWGQGTTVTVSS[human IgG1 constant region cut from this listing]GGGGSGGGGSGGGGSQSVLTQPPSASGTPGQRVTISCTGSSSNIGSNDVSWYQQLPGTAPKLLIYANSNRPSGVSDRFSGSKSGTSASLAISGLRSEDEADYYCGAWDDSLNGYVFGCGTKLTVLGGGGSGGGGSGGGGSGGGGSEVQLLESGGGLVQPGGSLRLSCAASGFTFSSYDMSWVRQAPGKCLEWVSAISGDNGNTYYADSVKGRFTISRDNSKNTLYLQMNSLRAEDTAVYYCAKGVLTTLMNWFDYWGQGTLVTVSS light: DIVMTQSPSSLAVSLGERVTMS[about 80 residues cut from this listing][about 120 residues cut from this listing] | 6.06 nM |  |  | 5.01 |
| Hu11F11(ver.2)-VH16 bivalent (bispecific antibody) (bispecific antibody, also called hu11F11-VH16; hu11F11x1564_VH16) heavy: EVQLVESGGGLVQPGGSLRLSCATSGFTFSDFYMEWVRQPPGKRLEWIAASRNKANDYTTEYSASVKGRFTVSRDDSKSSLYLQMNSLRAEDTAIYYCARDAHGKPFAYWGQGTTVTVSS[human IgG1 constant region cut from this listing]GGGGSGGGGSGGGGSQSVLTQPPSASGTPGQRVTISCTGSSSNIGSNDVSWYQQLPGTAPKLLIYANSNRPSGVSDRFSGSKSGTSASLAISGLRSEDEADYYCGAWDDSLNGYVFGCGTKLTVLGGGGSGGGGSGGGGSGGGGSEVQLLESGGGLVQPGGSLRLSCAASGFTFSSYDMSWVRQAPGKCLEWVSAISGSNGNTYYADSVKGRFTISRDNSKNTLYLQMNSLRAEDTAVYYCAKGVLTTLMNWFDYWGQGTLVTVSS light: DIVMTQSPSSLAVSLGERVTMS[about 80 residues cut from this listing][about 120 residues cut from this listing] | 0.236 nM | 0.143 nM | 6.13 | 5.83 |

Further lines, results first:

| EC50 [1] | EC50 [2] | MFI [3] | GeoMean, Internalization at 37° C. [4] | Binder |
| --- | --- | --- | --- | --- |
| 0.15 nM |  |  |  | Hu11F11(ver.2)-C04 (bispecific antibody) (bispecific antibody, also called Hu11F11(ver.2)-004) heavy: EVQLVESGGGLVQPGGSLRLSCATSGFTFSDFYMEWVRQPPGKRLEWIAASRNKANDYTTEYSASVKGRFTVSRDDSKSSLYLQMNSLRAEDTAIYYCARDAHGKPFAYWGQGTTVTVSS[human IgG1 constant region cut from this listing]GGGGSGGGGSGGGGSQSVLTQPPSASGTPGQRVTISCTGSSSNIGSNDVSWYQQLPGTAPKLLIYANSNRPSGVSDRFSGSKSGTSASLAISGLRSEDEADYYCGAWEQWLNGYVFGCGTKLTVLGGGGSGGGGSGGGGSGGGGSEVQLLESGGGLVQPGGSLRLSCAASGFTFSSYDMSWVRQAPGKCLEWVSAISYDNGNTYYADSVKGRFTISRDNSKNTLYLQMNSLRAEDTAVYYCAKGVLTTLMNWFDYWGQGTLVTVSS light: DIVMTQSPSSLAVSLGERVTMS[about 80 residues cut from this listing][about 120 residues cut from this listing] |
| 0.147 nM |  |  |  | Hu11F11(ver.2)-F06 (bispecific antibody, valency not printed) (bispecific antibody) heavy: EVQLVESGGGLVQPGGSLRLSCATSGFTFSDFYMEWVRQPPGKRLEWIAASRNKANDYTTEYSASVKGRFTVSRDDSKSSLYLQMNSLRAEDTAIYYCARDAHGKPFAYWGQGTTVTVSS[human IgG1 constant region cut from this listing]GGGGSGGGGSGGGGSQSVLTQPPSASGTPGQRVTISCTGSSSNIGSNDVSWYQQLPGTAPKLLIYANSNRPSGVSDRFSGSKSGTSASLAISGLRSEDEADYYCGTWAGSLNGYVFGCGTKLTVLGGGGSGGGGSGGGGSGGGGSEVQLLESGGGLVQPGGSLRLSCAASGFTFSSYDMSWVRQAPGKCLEWVSAISYDNGNTYYADSVKGRFTISRDNSKNTLYLQMNSLRAEDTAVYYCAKGVLTTLMNWFDYWGQGTLVTVSS light: DIVMTQSPSSLAVSLGERVTMS[about 80 residues cut from this listing][about 120 residues cut from this listing] |
| 0.167 nM |  |  | 7.28 | Hu11F11(ver.2)-VH35 (bivalent bispecific antibody) (bispecific antibody, also called hu11F11x1564_VH35) heavy: EVQLVESGGGLVQPGGSLRLSCATSGFTFSDFYMEWVRQPPGKRLEWIAASRNKANDYTTEYSASVKGRFTVSRDDSKSSLYLQMNSLRAEDTAIYYCARDAHGKPFAYWGQGTTVTVSS[human IgG1 constant region cut from this listing]GGGGSGGGGSGGGGSQSVLTQPPSASGTPGQRVTISCTGSSSNIGSNDVSWYQQLPGTAPKLLIYANSNRPSGVSDRFSGSKSGTSASLAISGLRSEDEADYYCGAWDDSLNGYVFGCGTKLTVLGGGGSGGGGSGGGGSGGGGSEVQLLESGGGLVQPGGSLRLSCAASGFTFSSYDMSWVRQAPGKCLEWVSAISYDNGSTYYADSVKGRFTISRDNSKNTLYLQMNSLRAEDTAVYYCAKGVLTTLMNWFDSWGQGTLVTVSS light: DIVMTQSPSSLAVSLGERVTMS[about 80 residues cut from this listing][about 120 residues cut from this listing] |
|  | 0.112 nM | 9.61 |  | hu11F11(ver.2)-F06 monovalent (bispecific antibody, non-deamidated wild type) (bispecific antibody, also called hu11f11-F06; F06 WT) heavy 1: EVQLVESGGGLVQPGGSLRLSCATSGFTFSDFYMEWVRQPPGKRLEWIAASRNKANDYTTEYSASVKGRFTVSRDDSKSSLYLQMNSLRAEDTAIYYCARDAHGKPFAYWGQGTTVTVSSASTKGPSVFPLAPSSKSTSGGTAALGCLVKDYFPEPVTVSWNSGALTSGVHTFPAVLQSSGLYSLSSVVTVPSSSLGTQTYICNVNHKPSNTKVDKKV[human IgG1 Fc with changes cut from this listing]GGGGSGGGGSGGGGSQSVLTQPPSASGTPGQRVTISCTGSSSNIGSNDVSWYQQLPGTAPKLLIYANSNRPSGVSDRFSGSKSGTSASLAISGLRSEDEADYYCGTWAGSLNGYVFGCGTKLTVLGGGGSGGGGSGGGGSGGGGSEVQLLESGGGLVQPGGSLRLSCAASGFTFSSYDMSWVRQAPGKCLEWVSAISYDNGNTYYADSVKGRFTISRDNSKNTLYLQMNSLRAEDTAVYYCAKGVLTTLMNWFDYWGQGTLVTVSS heavy 2: EVQLVESGGGLVQPGGSLRLSCATSGFTFSDFYMEWVRQPPGKRLEWIAASRNKANDYTTEYSASVKGRFTVSRDDSKSSLYLQMNSLRAEDTAIYYCARDAHGKPFAYWGQGTTVTVSS[human IgG1 constant region with changes cut from this listing] light: DIVMTQSPSSLAVSLGERVTMS[about 80 residues cut from this listing][about 120 residues cut from this listing] |

— patent US20220348665A1 (ABL BIO, published 2022)
